PubChem BioAssay AID759 (NMMLSC, 2007)
Out of some 190,000 compounds screened, about 270 (0.14%) were called active. This list was built around the results that the source calls inconclusive (neither active nor inactive); the mix of calls is not that of the screen.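 How the source made its calls: active means GTP binding activity at least 20% away from the 100% baseline, either lowered as inhibitor or raised as activator; inconclusive means flagged as likely green fluorescent, judged across all proteins in the well; inactive means the rest.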

These molecules were tested against GTPase HRas (Homo sapiens) (UniProt P01112) (assay: HRas wt fluorescent GTP binding changes, either direction – biochemical, wildtype, bead-based flow cytometry, multiplex, primary screen (AID 759;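 further: 0% = unlabeled GTP competition control and 100% = no-compound control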)). Conditions: GST-Ras wt beads, Bodipy-FL-GTP binding, at 10 µM, actives lie on both sides.
UniProt P01112, sequence (P01112 whole entry, looked up): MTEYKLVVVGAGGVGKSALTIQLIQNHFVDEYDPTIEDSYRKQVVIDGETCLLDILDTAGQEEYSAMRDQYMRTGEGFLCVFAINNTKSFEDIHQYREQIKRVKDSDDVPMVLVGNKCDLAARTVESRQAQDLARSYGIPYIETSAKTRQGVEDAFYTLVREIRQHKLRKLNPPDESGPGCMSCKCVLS

GTP binding activity, active:
COc1cc2c(cc1OC)-c1cc(NCc3ccccn3)nc(=O)n1CC2 79%

GTP binding activity, inconclusive:
c1ccc(OCc2nc3ccccc3[nH]2)cc1 106%
Cc1cc2nc(-c3ccc(SCC(=O)Nc4nccs4)nc3)[nH]c2cc1C 98%
COc1ccc(NC(=O)c2ccco2)cc1N 100%
COc1ccc(-c2csc(NC(=S)NC(=O)c3cccs3)n2)cc1OC 80%
O=Cc1c(NCc2ccco2)nc2ccccn2c1=O 92%
COC(=O)c1cc(-c2ccccc2)sc1NC(=O)CN1C(=O)c2ccccc2C1=O 106%
O=C(/C=C/c1ccc(Cl)cc1Cl)NCCSc1ccccc1 94%
OCC(CO)(CO)NCc1ccc(-c2ccccc2)cc1 204%
COc1ccc(/C=N/NC(=O)c2ccc(COc3cccc4cccnc34)cc2)cc1OC 88%
NC(=O)c1sc(=S)n2c1[nH]c(=O)c1sccc12 86%
O=C(NCc1ccccn1)C(=O)N/N=C/c1ccc2c(c1)OCO2 96%
COC(=O)[C@H](C)[C@H]1C[C@]1(C)[C@H](NC(=O)OCc1ccccc1)c1ccccc1 101%
CCN(CC)S(=O)(=O)c1ccc2nc(NC(=O)c3cccs3)sc2c1 89%
Cc1sc2nc(CN3CCOCC3)[nH]c(=S)c2c1C 92%
O=C(N/C(=C\c1ccccc1)C(=O)N1CCCCCC1)c1ccccc1 96%
CCS(=O)(=O)N1CCC(C(=O)NCCCOC)CC1 106%
Nc1nonc1NC(=O)CSc1ncccc1C(=O)O 102%
Cc1cccc(N2C(=O)c3cccnc3C2=O)c1 105%
COc1cccc(C(=O)CSc2nnc(CNc3nc(-c4ccccc4)cs3)n2C)c1 95%
CCn1c(SCC(=O)Nc2ccccc2N2CCCCC2)nc2c1c(=O)n(C)c(=O)n2C 93%
O=S(=O)(c1cccc(-c2nc3n(n2)Cc2ccccc2-3)c1)N1CCCCC1 90%
O=C(Cn1cnc2cc([N+](=O)[O-])ccc2c1=O)NCCc1ccc(Cl)cc1 77%
CCOc1ccc(C2=Nn3c(nnc3-c3ccccn3)SC2)cc1 85%
Cc1cccc(C(=O)NNC(=O)c2ccccc2)c1 97%
COc1ccc(NC(=O)/C(C#N)=C\c2ccc(OCc3ccc(C(=O)O)cc3)c(OC)c2)cc1 85%
Cn1c(=O)n(Cc2ccccc2F)c(=O)c2c1nc1n2CCN1Cc1ccco1 80%
CCOC(=O)c1ccc(NC(=O)CCc2ccc(CC)o2)cc1 107%
CC1(C)OC(=O)C(=Cc2ccc(-c3ccc(Cl)c(C(=O)O)c3)o2)C(=O)O1 90%
O=C(C/C=N/OCc1c(Cl)cccc1Cl)c1cnc(-c2ccccc2)s1 94%
CCn1nnnc1SCC(=O)N(C1CCCCC1)C1CCCCC1 95%
COc1ccccc1NC(=O)CN1CCN(C2c3ccccc3-c3ccccc32)CC1 97%
Cc1ccc(S(=O)(=O)CCSc2nc(C)cc(C(F)(F)F)c2C#N)cc1 117%
O=C(CSc1nnc(NC(=O)c2ccccc2Cl)s1)Nc1ccc2c(c1)oc1ccccc12 87%
CN(Cc1cccnc1)C(=O)CC1C(=O)NCCN1Cc1ccc(-c2ccccc2)cc1 (centres undefined) 90%
O=C(CSc1nc2ccccc2c(=O)n1-c1ccccc1)NC(=O)CN1CCCC1=O 96%
CC(C)c1ccc(NC(=S)NCc2ccc3c(c2)OCO3)cc1 95%
O=C(O)c1ccccc1S(=O)(=O)Cc1ccccc1 104%
COc1ccc(NC(=O)CSc2ccc3c4c(cccc24)C(=O)c2ccccc2-3)cc1 113%
CCC(C)n1c(/C=C/c2ccccc2)nc2ccccc21 (centres undefined) 104%

GTP binding activity, inactive:
COc1ccc(OC)c(/C=N/NC(=O)c2ccc(Cn3cc([N+](=O)[O-])cn3)o2)c1 82%
Cc1nn(C)c(C)c1Nc1ccc(N2C(=O)C3C4C=CC(C4)C3C2=O)cc1[N+](=O)[O-] (centres undefined) 95%
CCN(C(=O)COC(=O)/C=C/c1c(C)nn(Cc2ccc(C)cc2)c1C)C1CCS(=O)(=O)C1 (centres undefined) 97%
O=C(O)c1cccc(-n2cccc2/C=C2/NC(=O)N(c3ccc(Cl)cc3)C2=O)c1 82%
COc1cc2[nH]c(=S)nc(NCc3ccccn3)c2cc1OC 83%
CCOc1cc(/C=N/Nc2nc(N3CCCCC3)nc(N3CCCCC3)n2)ccc1OC(=O)c1ccco1 97%
CC(NCC(O)COCCC12CC3CC(CC(C3)C1)C2)c1ccccc1 (centres undefined) 97%
CN(C)c1cc[n+](CC(=O)Nc2ccc(Oc3ccccc3)cc2)cc1 98%
Cc1ccc(-c2nnc(N3CC(C)OC(C)C3)c3ccccc23)cc1 (centres undefined) 100%
CC(=O)NC(CCCN1C(=O)c2ccccc2C1=O)c1nnn(C)n1 (centres undefined) 99%
O=c1[nH]n(Cc2ccccc2)c(=O)c2ccccc12 97%
COc1cc(C(=O)NCCCNc2nc3cc(C)c(C)cc3cc2C#N)cc(OC)c1OC 102%
Cn1c(-c2cnn(-c3ccccc3)c2-n2cccc2)n[nH]c1=S 98%
O=C1c2ccccc2CCC12N=NCC2c1ccccc1 (centres undefined) 99%
O=C1N/C(=N\N=C\c2ccco2)SC1Cc1ccc(F)cc1 (centres undefined) 97%
O=C(Cc1ccccc1)NNC(=O)Nc1ccccc1 97%
C=CCSC1=N/C(=C\c2cc(OCC)c(OC(C)=O)c([N+](=O)[O-])c2)C(=O)S1 93%
N#C/C(=C\c1ccco1)c1nc2ccccc2s1 100%
CCc1ccc(NC(=O)C(=O)NCc2ccccn2)cc1 96%
